Laboratory results taken from PubChem BioAssay AID1476 (National Center for Advancing Translational Sciences (NCATS), 2009).
Where “and” joins values, the source holds several entries; their conditions need not be identical. Identical values can stand only once. Among all 200,000 compounds or so, about 4,500 (2.2%) were called active. Inconclusive results, whose numbers are uncertain, are shown with a selection of clear calls. Calls follow the shape of the dose curve; as a rule, active = well fitted inhibition curve with a large enough effect; inconclusive = small, poorly fitted or top-dose-only effect, or effect the other way; inactive = flat fitted curve, though single readings scatter. A potency beside an inconclusive call is a rough fit, not a confirmed value.

target: Cruzipain (Trypanosoma cruzi) (UniProt P25779); experiment: qHTS Assay for Promiscuous and Specific Inhibitors of Cruzain (without detergent); details: purified cruzain, Z-FR-AMC fluorescence, no detergent; also: nearly all actives have a fitted effect of over 40% in size;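 as to max response, negative = inhibition: plate controls were enzyme without inhibitor for no effect and buffer without enzyme for full effect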
Sequence of UniProt P25779 (P25779 whole entry, looked up): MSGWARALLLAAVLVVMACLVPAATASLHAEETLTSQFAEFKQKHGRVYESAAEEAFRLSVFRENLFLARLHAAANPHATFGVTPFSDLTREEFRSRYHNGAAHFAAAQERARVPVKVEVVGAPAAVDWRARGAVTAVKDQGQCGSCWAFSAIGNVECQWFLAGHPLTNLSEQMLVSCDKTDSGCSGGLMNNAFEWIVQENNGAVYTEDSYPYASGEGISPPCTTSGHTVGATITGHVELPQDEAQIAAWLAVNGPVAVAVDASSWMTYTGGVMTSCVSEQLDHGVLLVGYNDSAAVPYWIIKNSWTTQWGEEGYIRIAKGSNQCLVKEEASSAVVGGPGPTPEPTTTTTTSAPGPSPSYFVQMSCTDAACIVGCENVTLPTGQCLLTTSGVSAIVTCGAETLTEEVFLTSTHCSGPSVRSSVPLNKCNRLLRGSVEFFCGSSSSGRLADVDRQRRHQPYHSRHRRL
Outline: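 Purified cruzain at 1.5 nM, pre-incubated 15 min with compound at room temperature in 100 mM sodium acetate pH 5.5, 5 mM DTT, 0.00005% Triton X-100. Reaction started with 2 uM Z-FR-AMC; AMC fluorescence increase over 60 s gives rate.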
Potency is read from the fitted curve at half-maximal effect; tags tell the direction and shape of the fitted curve.

Structure (SMILES) | Potency | max response, negative = inhibition
CN(C)c1ccc(/C=C(/NC(=O)c2ccccc2)C(=O)N/N=C/c2ccc([N+](=O)[O-])c(O)c2)cc1 | inconclusive: 39.8 µM [inhibitor, single point] | –
CCc1ccc(NC(=O)C(=O)NCC(c2cccnc2)N2CCN(Cc3ccccc3)CC2)cc1 (stereo not drawn) | – | inactive: 2.28%
CCCCCCCC(O)CC(CC1CCCCC1)C(=O)NN (stereo not drawn) | inconclusive: 20 µM [activator, single point] | –
Cc1ccc(O)c(NC(=O)c2ccc(Br)c(S(=O)(=O)N3CCCCC3)c2)c1 | – | inactive: 10.5%
CCC(c1nnnn1C1CCCCC1)N(Cc1ccco1)Cc1cc2ccc(OC)cc2[nH]c1=O (stereo not drawn) | inconclusive: 31.6 µM [activator, single point] | –
O=C(Cn1c(=O)oc2cc(Cl)ccc21)Nc1cccc(C(F)(F)F)c1 | – | inactive: -0.783%
COc1cccc(NC(=O)Cn2nnc(-c3nc(-c4ccccc4)no3)c2N)c1 | inconclusive: 3.98 µM [inhibitor, single point] | –
CC(OC(=O)c1ccc(F)cc1)C(=O)Nc1nc(-c2cccc([N+](=O)[O-])c2)cs1 (stereo not drawn) | inconclusive: 25.1 µM [inhibitor, single point] | –
CC(C)C(c1nnnn1Cc1ccco1)N1CCN(c2nc3ccccc3s2)CC1 (stereo not drawn) | inconclusive: 25.1 µM [activator, single point] | –
COc1ccc(CCNC(=O)CCCCn2c(=O)c3ccccc3n(Cc3ccccc3C)c2=O)cc1OC | – | inactive: -7.48%
COCCNC(=O)CCc1c(C)nc2c(-c3ccc(F)cc3)c(C)nn2c1C | inconclusive: 39.8 µM [activator, single point] | –
CCS(=O)(=O)c1ncc(N(Cc2ccccc2)Cc2ccco2)c(C(=O)Nc2ccc(C)c(C)c2)n1 | inconclusive: 31.6 µM [inhibitor, single point] | –
Cc1ccccc1NC(=O)N1CCc2c(sc3c2CCCC3)C1c1ccccc1 (stereo not drawn) | inconclusive: 39.8 µM [inhibitor, single point] | –
C[C@@H](Cc1ccc(Cl)cc1Cl)NO | – | inactive: 19.3%
Cc1ccn2cc(CCNS(=O)(=O)c3ccc(F)c(C(F)(F)F)c3)nc2c1 | active: 25.1 µM | –
O=C(C1=C[C@@H]2[C@H]3C(=O)N(c4cccc(Cl)c4)C(=O)[C@H]3[C@@H](C(=O)c3ccc(Cl)cc3)N2C=C1)c1ccccc1 | active: 15.8 µM | –
COc1ccc(N(CC(=O)NCc2ccccc2Cl)S(=O)(=O)c2c(C)nn(C)c2C)cc1 | inconclusive: 39.8 µM [activator, single point] | –
Cc1c(Cc2ccccc2)sc(NC(=O)/C=C/c2cccc3ccccc23)c1C(N)=O | active: 5.01 µM | –
CCn1c2ccccc2c2nnc(SCc3ccc(C(=O)OC)o3)nc21 | inconclusive: 39.8 µM [activator, single point] | –
Nc1nc(Br)c2c(F)cccc2c1-c1ccc(Cl)cc1 | inconclusive: 39.8 µM [inhibitor, single point] | –
CCOc1ccc(C(=O)NCC(=O)OCC(=O)N2CCCCC2)cc1 | – | inactive: 0.285%

Structure (SMILES) | Potency | max response, negative = inhibition
Nc1nc(SCc2ccc([N+](=O)[O-])cc2)nc2nc3c(cc12)CCCC3 | inconclusive: 39.8 µM [inhibitor, single point] | –
COc1cc2nc(SCC(=O)Nc3c(C)cc(C)cc3C)n3nc(CCn4c(C)nc5ccccc54)nc3c2cc1OC | – | inactive: 1.34%
Cc1nn(Cc2c(Cl)cccc2Cl)c(C)c1NC(=O)CCCn1nc([N+](=O)[O-])c(Cl)c1C | inconclusive: 39.8 µM [activator, single point] | –
Cc1ccc(C(c2sc3nc(C)nn3c2O)N2CCN(c3ccccc3)CC2)cc1 (stereo not drawn) | inconclusive: 31.6 µM [activator, single point] | –
N#Cc1cc2c(nc1SCC(=O)Nc1sc3c(c1C#N)CCC3)CCC2 | inconclusive: 39.8 µM [inhibitor, single point] | –
O=C(CCC1N=C2c3ccccc3N=C(SCc3ccc(Cl)cc3)N2C1=O)NCCc1ccccc1 (stereo not drawn) | inconclusive: 20 µM [activator, single point] | –
COC(=O)[C@H](Cc1ccccc1)NC(=O)O[C@@H]1C(=O)c2cc(OC)ccc2O[C@H]1c1ccc(OC)c(Br)c1 | inconclusive: 39.8 µM [inhibitor, single point] | –
Fc1ccc(NC(=S)N2CCN(c3cccc(C(F)(F)F)c3)CC2)cc1 | – | inactive: -1.86%
COc1cc(/C=C(\C#N)c2nc3ccccc3[nH]2)cc(Cl)c1OCc1ccccc1Cl | active: 10 µM | –
COc1cc(/C=C2/C(=O)ON=C2C)ccc1OCc1ccccc1F | inconclusive: 31.6 µM [activator, single point] | –
O=C(Nc1ccc(N=Nc2ccccc2)cc1)c1cccc(Cl)c1 | inconclusive: 31.6 µM [inhibitor, single point] | –
CCCN(CCC)C(=O)Cn1c(=O)n(-c2ccccc2)c(=O)c2c3c(sc21)CCCC3 | – | inactive: -6.87%
N#Cc1nc(-c2cccs2)oc1N1CCOCC1 | inconclusive: 25.1 µM [inhibitor, single point] | –
COc1ccc(CC(=O)n2nc(-c3ccc(Cl)cc3)nc2NCc2ccco2)cc1 | inconclusive: 39.8 µM [inhibitor, single point] | –
COc1ccc(N2CCSC2C(=O)NN)cc1 (stereo not drawn) | inconclusive: 39.8 µM [activator, single point] | –
CCc1c2c(nc3cccc(OC)c13)OC(CC)C2 (stereo not drawn) | – | inactive: 0.769%
Cc1ccc(S(=O)(=O)N2CCOCC2)cc1NC(=O)CSc1nnc2cc(C)c3ccccc3n12 | inconclusive: 39.8 µM [activator, single point] | –
CCn1c2ccccc2c2cc(NC(=O)Cc3ccc(S(=O)(=O)N4CCOCC4)s3)ccc21 | active: 15.8 µM | –
CCN(CC)C(=O)CC(c1ccc(F)cc1)c1ccco1 (stereo not drawn) | inconclusive: 25.1 µM [activator, single point] | –
Cc1ccc(S(=O)(=O)N2CCCc3cc(NS(=O)(=O)c4cc(F)ccc4F)ccc32)cc1 | – | inactive: -18.2%
O=c1c2ccccc2c(-c2ccccc2)nn1-c1ccc(Cl)c(Cl)c1 | inconclusive: 39.8 µM [inhibitor, single point] | –

Structure (SMILES) | Potency | max response, negative = inhibition
CC1=C(C(=O)OCc2ccccc2)C(c2ccc(-c3ccccc3)cc2)NC(=O)N1CCCCCC(=O)O (stereo not drawn) | inconclusive: 31.6 µM [activator, single point] | –
Cc1ccc(S(=O)(=O)c2nnn3c2nc(NC(C)C)c2sccc23)cc1 | – | inactive: 14.5%
COc1ccc(Oc2ncc3nc(-c4cccc(C#N)c4)c(=O)n(Cc4cccc(OC)c4)c3n2)cc1 | inconclusive: 31.6 µM [inhibitor, single point] | –
CCC(=O)Nc1ccccc1-c1nc2ccccc2n(CC(=O)c2ccc(Cl)cc2)c1=O | – | inactive: 4.47%
CCOC(=O)N1CCc2c(sc(NCc3cccc(F)c3)c2C(=O)Nc2ccc(OC)cc2OC)C1 | inconclusive: 39.8 µM [activator, single point] | –
CCOC(=O)c1c(C)[nH]c(CCC(=O)Nc2c(C)cccc2CC)c1C | – | inactive: 11%
O=C(CSc1ncnc2scc(-c3ccc(Cl)cc3)c12)NCc1ccc2c(c1)OCO2 | inconclusive: 39.8 µM [inhibitor, single point] | –
Cc1cccc(-c2nc3ccccc3n2Cc2ccccc2)c1 | – | inactive: -6.01%
COc1cccc(OCc2nc3c4cnn(-c5ccccc5)c4ncn3n2)c1 | active: 25.1 µM | –
Cn1c(=O)oc2cc(S(=O)(=O)NC3CCCc4ccccc43)ccc21 (stereo not drawn) | – | inactive: 0.162%
CCOC(=O)N1CCC(NC(=O)c2cc3c(-c4ccc(OC)c(OC)c4)nn(C)c3s2)CC1 | inconclusive: 31.6 µM [activator, partial curve] | –
Cc1cc(C)nc(N=Nc2c(O)n(Cc3ccc(Cl)cc3)c3ccccc23)n1 | inconclusive: 20 µM [activator, partial curve] | –
C=CCn1c(=O)c2ccc(C(=O)NCc3ccccc3)cc2n(Cc2ccccc2Cl)c1=O | active: 25.1 µM | –
CCc1nnc(NC(=O)c2ccc(S(=O)(=O)N(CC(C)C)CC(C)C)cc2)o1 | inconclusive: 39.8 µM [activator, single point] | –
Cc1cc(N)c2ccccc2[n+]1CCCCCCCCCC[n+]1c(C)cc(N)c2ccccc21 | inconclusive: 25.1 µM [inhibitor, partial curve, poor fit] and inconclusive: 15.8 µM [inhibitor, partial curve] | inactive: -6.81% and inactive: -3.47%
O=C(N1CCOCC1)N1CCN(c2nc(-c3ccc(F)cc3)cs2)CC1 | inconclusive: 39.8 µM [activator, single point] | –
COc1ccc(CC(=O)NCCc2sc3nc(-c4ccc(OC)cc4)nn3c2C)cc1 | inconclusive: 39.8 µM [activator, single point] | –
CC(=O)OCC1O[C@@H](O[C@@H]2C[C@H]3C(C)(C)[C@H](OC(C)=O)CC[C@]3(C)[C@H]3CC[C@]45C[C@]4(CC[C@H]5[C@@H](C)C[C@@H](O)[C@H](O)C(C)(C)O)[C@@]32C)[C@H](O)[C@@H](O)[C@@H]1O (stereo partly drawn) | inconclusive: 3.16 µM [activator, partial curve] | –
O=[N+]([O-])c1ccc(N2CCOCC2)cc1NC(c1ccccc1)c1ccccc1 | inconclusive: 39.8 µM [inhibitor, single point] | –
CCCCCCCCCCCCC/C=C/[C@@H](O)[C@@H](N)CO | inconclusive: 31.6 µM [activator, single point] | –
